Experimental data reported in PMC8844851 (The Journal of Biological Chemistry, 2022).
Positions count from the first letter of the chain named. Where two headings read alike, the source gives them in different places. No constants are given. Whether binding was seen depends on the method and setting. In cells and extracts the contact can be indirect. Some entries that bind do so weakly or less than the wild type. For part of these data: Tags and fused reporters may be left off the sequences shown. Values belong to the molecule of their own block, whether it stands above or below them.

Amino acid sequences for entries named in this document (tags omitted).
UniProt O75794: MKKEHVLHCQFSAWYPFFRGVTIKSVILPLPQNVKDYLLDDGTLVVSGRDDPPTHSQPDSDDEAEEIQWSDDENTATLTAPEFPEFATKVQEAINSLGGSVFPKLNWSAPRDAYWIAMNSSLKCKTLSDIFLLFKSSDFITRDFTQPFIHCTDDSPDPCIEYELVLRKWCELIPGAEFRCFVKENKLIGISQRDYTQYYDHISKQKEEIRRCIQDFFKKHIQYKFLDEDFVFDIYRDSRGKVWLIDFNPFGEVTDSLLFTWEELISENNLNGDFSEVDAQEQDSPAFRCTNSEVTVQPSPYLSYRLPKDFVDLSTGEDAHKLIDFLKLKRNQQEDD
UniProt P41091: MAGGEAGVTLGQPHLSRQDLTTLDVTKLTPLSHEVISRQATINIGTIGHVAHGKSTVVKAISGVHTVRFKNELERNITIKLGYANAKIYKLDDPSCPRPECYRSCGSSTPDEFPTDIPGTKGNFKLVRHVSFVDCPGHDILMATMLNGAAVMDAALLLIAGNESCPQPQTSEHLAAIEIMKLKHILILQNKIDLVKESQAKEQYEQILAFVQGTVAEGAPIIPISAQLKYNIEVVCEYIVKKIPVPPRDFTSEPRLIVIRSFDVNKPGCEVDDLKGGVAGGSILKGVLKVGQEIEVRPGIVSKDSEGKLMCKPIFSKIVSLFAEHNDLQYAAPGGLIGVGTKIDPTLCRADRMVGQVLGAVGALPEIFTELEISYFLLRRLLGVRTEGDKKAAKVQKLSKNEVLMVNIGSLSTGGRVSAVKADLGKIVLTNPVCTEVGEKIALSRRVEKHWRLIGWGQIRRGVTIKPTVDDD

What was measured:
[1] = biological target: ^FLAGhCdc123 in Flp-In T-REx-293 cells (human) (UniProt O75794); assay: co-IP; Flp-In T-REx-293 cells with FLAG-heIF2γ or FLAG-hCdc123; around 8 mg lysate (150 mM NaCl, 50 mM Tris-HCl pH 8.2, 1% Triton X-100) on M2 anti-FLAG matrix, 2 h, 4 °C, eluted with 3x FLAG peptide; enrichment from extract to IP, heIF2γ set to 100% (n = 1)
[2] = biological target: endogenously FLAG-tagged Gcd11 (S. cerevisiae) (UniProt P32481); assay: co-IP; endogenously FLAG-tagged Sui2, Sui3 or Gcd11 precipitated with anti-FLAG beads from yeast extract, 4 °C, 2 h; Cdc123 signal normalised to the FLAG-tagged subunit, Gcd11 set to 100% (n = 3)
[3] = biological target: T1, N-terminally FLAG-tagged Sui3 L134R/L135R (S. cerevisiae) (UniProt P09064); assay: co-IP; N-terminally FLAG-tagged Sui3 variants (GAL1 promoter) precipitated with anti-FLAG beads from yeast extract; Western blot for Gcd11, Sui2, Cdc123 and Tif5-13xMYC
T1 sequence: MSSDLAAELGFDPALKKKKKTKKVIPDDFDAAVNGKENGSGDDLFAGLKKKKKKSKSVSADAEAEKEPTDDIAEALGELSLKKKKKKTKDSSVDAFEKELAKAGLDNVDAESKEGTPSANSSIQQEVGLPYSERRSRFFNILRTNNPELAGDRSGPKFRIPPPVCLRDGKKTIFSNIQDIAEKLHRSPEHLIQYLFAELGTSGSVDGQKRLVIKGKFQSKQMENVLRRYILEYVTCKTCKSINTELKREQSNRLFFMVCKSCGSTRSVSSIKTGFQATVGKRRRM

[4] = biological target: T2, N-terminally FLAG-tagged Sui3 Y131A/S132A (S. cerevisiae) (UniProt P09064); assay: as above
T2 sequence: T1 sequence with Y131A, S132A, R134L, R135L

[5] = biological target: T3, FLAG-tagged Gcd11 (410-527), domain III (S. cerevisiae) (UniProt P32481); assay: co-IP; FLAG-Gcd11 variants (coexpressed with endogenous Gcd11) precipitated with anti-FLAG beads from yeast whole cell extract (around 2 mg protein), 4 °C, 2 h; Western blot of coprecipitated proteins; Cdc123 quantified against WT Gcd11 (n = 3)
T3 sequence: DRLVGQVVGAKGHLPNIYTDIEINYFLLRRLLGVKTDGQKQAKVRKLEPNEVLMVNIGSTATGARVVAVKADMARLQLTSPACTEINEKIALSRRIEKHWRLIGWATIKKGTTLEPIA

[6] = biological target: FLAG-tagged Gcd11 (1-514) (S. cerevisiae) (UniProt P32481); assay: as above
[7] = biological target: FLAG-tagged Gcd11 WT (S. cerevisiae) (UniProt P32481); assay: as above
[8] = biological target: T4, N-terminally 3xFLAG-tagged Sui2 L205E (S. cerevisiae) (UniProt P20459); assay: co-IP; N-terminally 3xFLAG-tagged Sui2 variants (TEF2 promoter) precipitated with anti-FLAG beads from yeast extract; Western blot for myc-Cdc123, Gcd11 and Sui3
T4 sequence: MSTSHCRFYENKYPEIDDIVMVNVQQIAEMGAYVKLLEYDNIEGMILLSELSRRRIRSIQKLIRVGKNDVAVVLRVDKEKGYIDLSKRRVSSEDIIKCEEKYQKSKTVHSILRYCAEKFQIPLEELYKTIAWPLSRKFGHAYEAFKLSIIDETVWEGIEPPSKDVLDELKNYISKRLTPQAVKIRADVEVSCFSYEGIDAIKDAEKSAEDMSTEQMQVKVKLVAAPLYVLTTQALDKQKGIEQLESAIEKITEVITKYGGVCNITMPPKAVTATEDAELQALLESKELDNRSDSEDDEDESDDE

[9] = biological target: T5, N-terminally 3xFLAG-tagged Sui2 WT (TEF2 promoter) (S. cerevisiae) (UniProt P20459); assay: as above
T5 sequence: T4 sequence with E205L

[10] = biological target: T6, N-terminally 3xFLAG-tagged Sui2 V220E (S. cerevisiae) (UniProt P20459); assay: as above
T6 sequence: T4 sequence with E205L, V220E

[11] = biological target: T4, N-terminally 3xFLAG-tagged Sui2 L205E (S. cerevisiae); assay: as above; remark: listed apart in the source
[12] = biological target: T6, N-terminally 3xFLAG-tagged Sui2 V220E (S. cerevisiae); assay: as above; remark: listed apart in the source
[13] = biological target: T7, endogenously FLAG-tagged Sui2 (S. cerevisiae) (UniProt P20459); assay: co-IP; endogenously FLAG-tagged Sui2, Sui3 or Gcd11 precipitated with anti-FLAG beads from yeast extract, 4 °C, 2 h; Cdc123 signal normalised to the FLAG-tagged subunit, Gcd11 set to 100% (n = 3)
T7 sequence: T4 sequence with E205L

[14] = biological target: T8, C-terminally FLAG-tagged Cdc123 (S. cerevisiae, UniProt Q05791 1-360); assay: co-IP; Cdc123-FLAG precipitated with anti-FLAG beads from yeast extract, 4 °C, 2 h; subunit signal in IP normalised to whole cell extract, Gcd11 set to 100% (n = 3); also SUI2/SUI2 against sui2Δ/SUI2 diploid strains (n = 4)
T8 construct: Cdc123 of S. cerevisiae; also called Cdc123^FLAG; source: S. cerevisiae, in lysate; not shown: FLAG, C-terminal, kept
T8 sequence (looked up): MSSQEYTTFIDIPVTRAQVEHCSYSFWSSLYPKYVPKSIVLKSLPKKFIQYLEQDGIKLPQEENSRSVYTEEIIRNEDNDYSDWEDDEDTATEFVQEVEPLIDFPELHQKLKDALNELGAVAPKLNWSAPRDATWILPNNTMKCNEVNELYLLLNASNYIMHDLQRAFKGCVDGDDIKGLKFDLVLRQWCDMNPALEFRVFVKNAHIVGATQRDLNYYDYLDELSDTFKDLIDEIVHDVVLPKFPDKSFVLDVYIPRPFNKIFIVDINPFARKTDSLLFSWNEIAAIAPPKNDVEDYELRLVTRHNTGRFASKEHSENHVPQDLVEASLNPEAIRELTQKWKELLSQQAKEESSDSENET

[15] = biological target: T8, C-terminally FLAG-tagged Cdc123; assay: co-IP; Cdc123-FLAG precipitated with anti-FLAG beads from yeast strains overexpressing HA-tagged Sui2 variants (or Sui3) from the GAL1 promoter, compared with endogenous levels

Molecule: heIF2γ (endogenous) (from UniProt P41091 1-472)
- binding [1]: binds

B1: Cdc123 (yeast) (protein, UniProt Q05791 1-360)
chain: T8 sequence (looked up)
- binding [2]: binds
- binding [3]: no binding
- binding [4]: no binding
- binding [5]: binds
- binding [6]: no binding
- binding [7]: binds

Next, values leading:

- binding [8]: binds weakly
- binding [9]: binds weakly
- binding [10]: binds weakly
B2: myc-tagged Cdc123 (protein, UniProt Q05791 1-360)
chain: T8 sequence (looked up)

- binding [11]: no binding
- binding [12]: no binding
- binding [13]: binds
- binding [14]: binds
- binding [15]: binds
B3: yeast eIF2γ (Gcd11) (natural protein, UniProt P32481 1-527, looked up)
chain: MSDLQDQEPSIIINGNLEPVGEPDIVEETEVVAQETQETQDADKPKKKVAFTGLEEDGETEEEKRKREFEEGGGLPEQPLNPDFSKLNPLSAEIINRQATINIGTIGHVAHGKSTVVRAISGVQTVRFKDELERNITIKLGYANAKIYKCQEPTCPEPDCYRSFKSDKEISPKCQRPGCPGRYKLVRHVSFVDCPGHDILMSTMLSGAAVMDAALLLIAGNESCPQPQTSEHLAAIEIMKLKHVIILQNKVDLMREESALEHQKSILKFIRGTIADGAPIVPISAQLKYNIDAVNEFIVKTIPVPPRDFMISPRLIVIRSFDVNKPGAEIEDLKGGVAGGSILNGVFKLGDEIEIRPGIVTKDDKGKIQCKPIFSNIVSLFAEQNDLKFAVPGGLIGVGTKVDPTLCRADRLVGQVVGAKGHLPNIYTDIEINYFLLRRLLGVKTDGQKQAKVRKLEPNEVLMVNIGSTATGARVVAVKADMARLQLTSPACTEINEKIALSRRIEKHWRLIGWATIKKGTTLEPIA
notes: Gcd11, eIF2 gamma subunit of S. cerevisiae, untagged endogenous protein detected with antiserum; source: endogenous, S. cerevisiae (W303 derivatives) lysate
